# Data published in PubChem BioAssay (NCATS).
# Inconclusive results, whose numbers are uncertain, are shown with a selection of clear calls. For some assays here: Potencies of inconclusive entries are left out as doubtful fits. Active and inactive are the calls of the source. Unless noted, the call rests on the fitted dose curve; in most records, active means well fitted curve in the direction sought with a large enough effect in the repeat runs; inconclusive means weak or mixed curves; inactive means no such curve, though single readings can be large; an effect the other way counts as inactive or inconclusive.
# How the values were obtained:
# [1] = target: Cytochrome P450 2D6 (Homo sapiens) (UniProt P10635); experiment: Cytochrome P450 family 2 subfamily D member 6 (CYP2D6) small molecule antagonists: luciferase biochemical (cell-free) qHTS assay (AID 1645840); details: P450-Glo CYP2D6 enzyme, luciferin luminescence, 1 h; series mostly up to 57.4 µM; further: nearly all actives have a fitted effect of over 55% in size; further: potency means the concentration at half of the fitted maximal effect
# Sequence of UniProt P10635 (P10635 whole entry, looked up): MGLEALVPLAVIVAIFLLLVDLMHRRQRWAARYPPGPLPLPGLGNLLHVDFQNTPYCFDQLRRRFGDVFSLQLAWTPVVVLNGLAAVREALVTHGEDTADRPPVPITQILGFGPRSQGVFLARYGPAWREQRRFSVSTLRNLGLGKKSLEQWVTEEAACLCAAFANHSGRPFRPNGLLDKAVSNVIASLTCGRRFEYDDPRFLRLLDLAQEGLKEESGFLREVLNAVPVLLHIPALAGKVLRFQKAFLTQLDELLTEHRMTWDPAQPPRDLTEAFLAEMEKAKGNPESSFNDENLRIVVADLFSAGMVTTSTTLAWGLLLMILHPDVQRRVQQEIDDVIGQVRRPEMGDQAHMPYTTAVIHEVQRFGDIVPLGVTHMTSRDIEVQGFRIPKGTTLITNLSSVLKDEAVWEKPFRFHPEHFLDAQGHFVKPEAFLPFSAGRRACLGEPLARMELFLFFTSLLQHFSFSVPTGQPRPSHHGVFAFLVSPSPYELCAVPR
# Outline: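 P450-Glo luminescent screen: recombinant CYP2D6 enzyme–proluciferin substrate mix preincubated with compound 10 min at room temperature, then NADPH regeneration added for 1 h at room temperature. Detection reagent added for 20 min; luciferin light read as relative luminescence units.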
# [2] = target: Cytochrome P450 2C9 (Homo sapiens) (UniProt P11712); experiment: Cytochrome P450 family 2 subfamily C member 9 (CYP2C9) small molecule antagonists: luciferase biochemical (cell-free) qHTS assay (AID 1645842); details: P450-Glo CYP2C9 enzyme assay, luciferin luminescence; series mostly up to 57.4 µM; further: nearly all actives have a fitted effect of over 55% in size; further: potency means the concentration at half of the fitted maximal effect
# Sequence of UniProt P11712 (P11712 whole entry, looked up): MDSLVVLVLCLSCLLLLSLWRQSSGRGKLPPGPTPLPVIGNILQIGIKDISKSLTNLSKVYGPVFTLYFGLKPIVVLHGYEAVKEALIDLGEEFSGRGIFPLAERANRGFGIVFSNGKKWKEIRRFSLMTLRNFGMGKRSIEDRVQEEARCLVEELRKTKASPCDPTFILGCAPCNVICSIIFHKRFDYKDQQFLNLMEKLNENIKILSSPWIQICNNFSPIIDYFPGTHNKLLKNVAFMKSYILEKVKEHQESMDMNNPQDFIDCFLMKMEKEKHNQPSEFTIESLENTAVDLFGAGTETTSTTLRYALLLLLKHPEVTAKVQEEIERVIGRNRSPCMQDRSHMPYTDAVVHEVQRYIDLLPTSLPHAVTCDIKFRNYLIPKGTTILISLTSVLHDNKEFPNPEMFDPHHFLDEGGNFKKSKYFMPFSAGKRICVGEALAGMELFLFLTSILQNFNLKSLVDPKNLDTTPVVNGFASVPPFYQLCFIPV
# Outline: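 Luminescence, after 20 min with luciferin detection reagent, reflected CYP2C9 turnover during a 1 h NADPH-driven reaction at 37C. Enzyme-substrate mix contained 0.4% bovine serum albumin and was preincubated with compound 10 min at room temperature.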
# [3] = Primary qHTS for inhibitors of nuclear receptor binding SET domain protein 2 (NSD2) in an RCH-ACV wild type WT cells (2C) (AID 1645877; active means well fitted curve in the direction sought with a large enough effect; inconclusive means small, poorly fitted or top-dose-only effect, or another doubt; inactive means no such curve, though single readings can be large; an effect the other way counts as inactive or inconclusive; further: potency means the concentration at half of the fitted maximal effect; nearly all actives have a fitted effect of over 70% in size); details: RCH-ACV NSD2 WT (2C) viability, CellTiter-Glo, 72 h; series mostly up to 44.9 µM
# [4] = target: Nuclear receptor subfamily 1 group I member 3 (Homo sapiens) (UniProt Q14994); experiment: Primary qHTS for antagonist of constitutive androstane receptor (CAR) against the NCATS DSHEA and TCM libraries (AID 1794836; active means well fitted curve in the direction sought with a large enough effect; inconclusive means small, poorly fitted or top-dose-only effect, or another doubt; inactive means no such curve, though single readings can be large; an effect the other way counts as inactive or inconclusive); details: CAR reporter cell assay, antagonist mode, luciferase; series mostly up to 40 µM
# Sequence of UniProt Q14994 (Q14994 whole entry, looked up): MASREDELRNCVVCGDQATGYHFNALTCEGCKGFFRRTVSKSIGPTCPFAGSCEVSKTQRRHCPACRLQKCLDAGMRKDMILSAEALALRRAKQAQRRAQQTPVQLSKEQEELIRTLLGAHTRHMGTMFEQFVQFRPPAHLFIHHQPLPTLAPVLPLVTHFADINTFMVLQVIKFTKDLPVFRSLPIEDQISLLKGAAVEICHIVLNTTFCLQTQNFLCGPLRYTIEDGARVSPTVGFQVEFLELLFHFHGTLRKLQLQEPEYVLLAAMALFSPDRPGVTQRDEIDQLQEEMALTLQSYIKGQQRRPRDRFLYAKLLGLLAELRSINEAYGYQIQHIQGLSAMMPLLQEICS
# Outline: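 HepG2 cells stably carrying hCAR and a CYP2B6 luciferase reporter (2,500 cells/well) attached for 5 h, then received compounds with 48 uM CITCO for 24 h at 37C. ONE-Glo luminescence read antagonism; CellTiter-Fluor (405/540 nm) gave viability.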
# [5] = Primary qHTS for inhibitors of nuclear receptor binding SET domain protein 2 (NSD2) in an isogenic RCH-ACV NSD2 p.E1099K mutant (9B) (AID 1645876; active means well fitted curve in the direction sought with a large enough effect; inconclusive means small, poorly fitted or top-dose-only effect, or another doubt; inactive means no such curve, though single readings can be large; an effect the other way counts as inactive or inconclusive; further: potency means the concentration at half of the fitted maximal effect; nearly all actives have a fitted effect of over 70% in size); details: RCH-ACV (leukaemia line) NSD2 E1099K (9B) viability, CellTiter-Glo, 72 h; series mostly up to 44.9 µM
# Papain (Carica papaya) = Papain (Carica papaya) (UniProt P00784); experiment: Primary qHTS assay for inhibitors of the protease papain (AID 1645873; active means well fitted curve in the direction sought with a large enough effect; inconclusive means small, poorly fitted or top-dose-only effect, or another doubt; inactive means no such curve, though single readings can be large; an effect the other way counts as inactive or inconclusive;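 further: papain turnover of Z-FR-AMC read as the AMC fluorescence gain over 10 min; potency means the concentration at half of the fitted maximal effect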); details: papain Z-FR-AMC cleavage, AMC fluorescence; series mostly up to 49.8 µM
# Sequence of UniProt P00784 (P00784 whole entry, looked up): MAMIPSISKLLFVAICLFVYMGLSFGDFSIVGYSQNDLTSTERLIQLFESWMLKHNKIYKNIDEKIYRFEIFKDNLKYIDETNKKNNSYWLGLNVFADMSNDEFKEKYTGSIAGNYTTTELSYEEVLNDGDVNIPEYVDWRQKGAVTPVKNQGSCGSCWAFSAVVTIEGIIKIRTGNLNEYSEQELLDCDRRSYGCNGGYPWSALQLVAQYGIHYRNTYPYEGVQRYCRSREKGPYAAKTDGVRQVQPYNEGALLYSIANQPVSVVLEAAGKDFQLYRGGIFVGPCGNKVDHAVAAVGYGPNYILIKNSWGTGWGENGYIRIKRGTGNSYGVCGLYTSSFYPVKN
# [6] = target: Cytochrome P450 3A4 (Homo sapiens) (UniProt P08684); experiment: Cytochrome P450 family 3 subfamily A member 4 (CYP3A4) small molecule antagonists: luciferase qHTS assay (AID 1645841); details: P450-Glo CYP3A4 enzyme assay, luciferin luminescence; series mostly up to 57.4 µM; further: potency means the concentration at half of the fitted maximal effect; nearly all actives have a fitted effect of over 45% in size
# Sequence of UniProt P08684 (P08684 whole entry, looked up): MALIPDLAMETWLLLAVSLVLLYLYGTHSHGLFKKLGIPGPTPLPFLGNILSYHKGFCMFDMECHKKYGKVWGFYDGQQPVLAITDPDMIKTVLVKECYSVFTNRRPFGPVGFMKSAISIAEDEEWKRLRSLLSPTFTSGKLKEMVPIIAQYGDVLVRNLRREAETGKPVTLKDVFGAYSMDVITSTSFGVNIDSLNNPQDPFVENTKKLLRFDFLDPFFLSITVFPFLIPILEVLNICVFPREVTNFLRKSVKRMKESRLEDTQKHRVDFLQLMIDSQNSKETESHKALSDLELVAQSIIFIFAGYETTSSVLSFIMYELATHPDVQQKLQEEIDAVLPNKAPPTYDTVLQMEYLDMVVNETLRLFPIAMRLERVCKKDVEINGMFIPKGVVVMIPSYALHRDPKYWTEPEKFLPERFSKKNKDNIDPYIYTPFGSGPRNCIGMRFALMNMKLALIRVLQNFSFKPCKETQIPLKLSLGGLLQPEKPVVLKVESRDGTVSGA
# Outline: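 P450-Glo CYP3A4 enzyme with proluciferin substrate was preincubated with DMSO-dissolved compounds for 10 min at room temperature. NADPH regeneration solution started a 1 h reaction. Detection reagent stopped it, and luminescence was read after 20 min.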
# Tags describe the fitted curve by direction and shape.
smiles,measurement,setting,value
CC(C)=CCC[C@@](C)(O)[C@H]1CC=C(C)CC1,Potency,[1],"inconclusive [inhibitor, single point]"
same,Potency,[2],"inconclusive [inhibitor, single point]"
same,Potency,[3],"inconclusive [inhibitor, partial curve, poor fit]"
same,Potency,[4],inactive
CS(=O)(=O)c1ccc([C@@H](O)[C@@H](CO)NC(=O)C(Cl)Cl)cc1,Potency,[1],"inconclusive [inhibitor, partial curve, poor fit]"
same,Potency,[3],"inconclusive [inhibitor, partial curve, poor fit]"
C[C@]12C=CC(=O)C=C1[C@@H](F)C[C@@H]1[C@@H]2[C@@H](O)C[C@@]2(C)[C@H]1CC[C@]2(O)C(=O)CO,Potency,[1],inactive
same,Potency,[5],"inconclusive [inhibitor, partial curve]"
CCN(CC)CCNc1ccc(CO)c2sc3ccccc3c(=O)c12,Potency,[1],active: 4.36 µM
COCC(=O)O[C@]1(CCN(C)CCCc2nc3ccccc3[nH]2)CCc2cc(F)ccc2[C@@H]1C(C)C,Potency,[1],active: 0.049 µM
same,Potency,Papain (Carica papaya),"inconclusive [inhibitor, partial curve]"
same,Potency,[3],active: 9.44 µM
CC(=O)Oc1c(C)c(C)c2c(c1C)CC[C@@](C)(CCC[C@H](C)CCC[C@H](C)CCCC(C)C)O2,Potency,[1],"inconclusive [inhibitor, partial curve, poor fit]"
same,Potency,[6],"inconclusive [falling, single point]"
same,Potency,[2],inactive
Cc1cc(-c2ccc(N=Nc3c(S(=O)(=O)O)cc4cc(S(=O)(=O)O)cc(N)c4c3O)c(C)c2)ccc1N=Nc1c(S(=O)(=O)O)cc2cc(S(=O)(=O)O)cc(N)c2c1O,Potency,[1],"inconclusive [inhibitor, single point]"
same,Potency,[2],active: 15.1 µM
